Measured values reported in PubChem BioAssay AID1963826 (Molecular Pharmacology Branch, DTP, NCI, 2024).
Some entries of the source have several records that differ or are many. Only these are listed. There may be further records. Values that stand side by side are repeats (runs, samples, wells, individuals or studies). Brackets with × say how often a value occurs here.

Test system: 926638-142-R-J1-PDC complex spheroid viability
Test: Anticancer human tumor 926638-142-R-J1-PDC patient-derived endometrial carcinoma cell line growth inhibition [POLQ]
Conditions: stronger effect = lower value
Protocol: Multicellular complex tumor spheroid response to Polymerase (POL) inhibitors (novobiocin, ART-558, RP6685) in combination with a variety of drugs and investigational agents in selected tumor cell lines
The POL inhibitors (novobiocin, ART-558, and RP6685) were evaluated both individually and in combination with standard of care and investigational anticancer small molecules within a complex spheroid model of solid tumors. . Complex spheroids include a stromal component modeled by human endothelial cells (HUVEC) and fibroblasts modeled by human mesenchymal stem cells (MSCs). The concentration ranges selected for each drug and investigational agent were based upon clinically achievable concentrations if the clinical Cmax of the agent was known.
Compounds. The drugs and investigational agents: novobiocin (NSC847541), ART-558 (NSC835418), RP-6685 (NSC848927), peposertib (NSC802822), ceralasertib (NSC780249), elimusertib (NSC800525), camonsertib (NSC841442), AZD-1390 (NSC803789), olaparib (NSC753686), talazoparib (NSC767125), rucaparib (NSC756644), sotorasib (NSC818433), MRTX-1133 (NSC836407), SN-38 (NSC673596), topotecan (NSC609699), epotoside (NSC141540), doxorubicin (NSC123127), gemcitabine (NSC613327), 5-fluorouracil (NSC19893), paclitaxel (NSC125973), vemurafenib (NSC761431), MSA-2 (NSC828583), SN-011 (NSC837082), adavosertib (NSC754352), prexasertib (NSC758257), carboplatin (NSC241240) and oxaliplatin (NSC266046), were obtained from the National Cancer Institute (NCI) Developmental Therapeutics Program Chemical Repository (21). The FDA-approved anticancer drug set is available from the Developmental Therapeutics Program at https://dtp.cancer.gov/organization/dscb/obtaining/. […] The stock solutions were prepared in dimethyl sulfoxide (DMSO, Sigma-Aldrich, St. Louis, MO, cat. D2650), except for the platinum compounds which were prepared in saline (Quality Biological, Gaithersburg, MD, cat. 114-055-101), at 800-fold the tested concentration and stored at -70 degrees C prior to their use. All drugs and investigational agents were tested over a range starting from a high concentration at or near the clinical Cmax and decreasing in half-log increments. If the clinical Cmax for an agent had not been determined, the highest concentration tested was 10 microM, except for SN-38, which was tested at a high concentration of 1 microM.
Cell Culture. All cells were maintained in an incubator at 37 degrees C and 5% CO2 with 95% humidity. The PDC lines were cultured according to standard operating procedures established by the NCI PDMR (https://pdmr.cancer.gov). Table 3 of the manuscript, lists the cell lines along with the number of the three cell types plated to form the mct-spheroids and media for tumor cell growth. After thawing, all PDC lines, except 997537-175-T-J1-PDC and 415267-285-R-J2-PDC, were cultured in Matrigel-coated flasks prepared with a working solution of 1X Ham's F-12 nutrient mix, without supplementation (Thermo Fisher Scientific, cat. 11765054), 100 U/mL penicillin-streptomycin (Thermo Fisher Scientific, cat. 15140122), and 2.5% Matrigel (Corning Inc., Corning, NY, cat. 354248) for the first three passages. The two PDC lines 997537-175-T-J1-PDC and 415267-285-R-J2-PDC were cultured on uncoated flasks. The 857933-349-R-J2-PDC line was cultured in 6C/Colon 1B media containing advanced DMEM/F-12 (Thermo Fisher Scientific, cat. 12634028), 10 mM HEPES (Thermo Fisher Scientific, cat. 15630080), 1X GlutaMAX supplement (Thermo Fisher Scientific, cat. 35050061), 0.1 mg/mL primocin (InvivoGen, San Diego, CA, cat. ant-pm-2), 10% defined fetal bovine serum, heat inactivated (HyClone Laboratories Inc., Logan, UT, cat. SH30070.03HI), 50% L-WRN conditioned media (ATCC, cat. CRL-3276), 1.25 mM N-Acetyl-L-cysteine (Sigma-Aldrich, cat. A9165), 10 mM nicotinamide (Sigma-Aldrich, cat. N0636), 1X B-27 supplement (Thermo Fisher Scientific, cat. 17504044), 1X N-2 supplement (Thermo Fisher Scientific, cat. […]
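Further: spheroids exposed to drugs for one week before readout; percent viability relative to DMSO vehicle control wells set as 100%.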

Compound	viability, T/C (compound alone 0.0316 µM)	viability, T/C (compound alone 1 µM)	viability, T/C (compound alone 3.16 µM)	viability, T/C (compound alone 10 µM)	viability, T/C (compound alone 0.316 µM)	viability, T/C (compound alone 0.1 µM)
Cc1cccc(N(C)C(=O)C2C(O)CCN2c2nc(C)cc(C(F)(F)F)c2C#N)c1 (stereo not given)	92, 107 (2×), 94.7, 77.1, 96.8, 85.7, 96.2, 94.6, 103, 100, 98.7, 91.7%	90.5, 92.5, 85.2, 91, 79.9, 110, 102, 88.6, 95.5 (2×), 94.3, 106, 99.6%	95.8, 103, 102, 101 (3×), 65.7, 113, 92.9 (2×), 90.7, 117, 91.3%	91.5, 95.6, 82, 90.7, 74.5, 92.9, 108, 106, 99.3, 85, 104, 95.5, 98.3%	–	–
Nc1ccc(C#CCN(C(=O)Cc2ncc(C(F)(F)F)cc2C(F)(F)F)c2ccc(F)cc2)nn1	–	–	116, 109, 117, 101, 86.1, 115, 102, 96.9, 86, 103, 118, 87, 106%	–	108, 83.3, 103 (2×), 95.1, 104, 99.9, 101, 97, 102, 107, 111, 96.2%	–
COC1C(OC(N)=O)C(O)C(Oc2ccc3c(O)c(NC(=O)c4ccc(O)c(CC=C(C)C)c4)c(=O)oc3c2C)OC1(C)C (stereo not given)	105, 103 (2×), 98.8, 93.1, 91, 97.8, 107, 96.1, 81.1, 101, 93, 112%	106, 114, 113, 92.8, 92.3, 110 (2×), 98.3, 79.8, 100, 105, 117, 93.6%	109 (2×), 102 (2×), 95.1, 85.6, 93.4, 95.8, 115, 93, 98.6, 100, 106%	–	–	90.6, 106 (2×), 98.9 (2×), 94.6, 83.7, 98.2, 96.2, 120, 102, 91.3, 101%
